Test results taken from the supplement of paper PMC8728848.
The list shows a part of the results.

Legend:
Assay in all cases: glycan array binding signal (z-score within array); higher = stronger binding
Conditions in all cases: glycan notation: IUPAC condensed, linker removed
[1] = target: Gal3S(b1-3)[Fuc(a1-4)]GlcNAc
Summary of the method: (§1)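 Glycan array binding is given as a within-array Z-score, which can be read as non-binding when negative. The arrays, 3228 of them, came from the Consortium for Functional Glycomics database and were retained only where the protein sequence was available. Z-scores were averaged across arrays of the same protein sequence at different concentrations or buffers and across linkers.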

Gal3S(b1-4)Glc = target: Gal3S(b1-4)Glc
Summary of the method: as §1

Gal3S(b1-4)Glc6S = target: Gal3S(b1-4)Glc6S
Summary of the method: as §1

Gal3S(b1-4)GlcNAc = target: Gal3S(b1-4)GlcNAc
Summary of the method: as §1

[2] = target: Gal3S(b1-4)[Fuc(a1-3)]Glc6S
Summary of the method: as §1

[3] = target: Gal3S(b1-4)[Fuc(a1-3)]GlcNAc
Summary of the method: as §1

[4] = target: Gal3S(b1-4)[Fuc(a1-3)]GlcNAc6S
Summary of the method: as §1

Gal3S4S(b1-4)GlcNAc = target: Gal3S4S(b1-4)GlcNAc
Summary of the method: as §1

Gal3S6S(b1-4)GlcNAc = target: Gal3S6S(b1-4)GlcNAc
Summary of the method: as §1

Gal3S6S(b1-4)GlcNAc6S = target: Gal3S6S(b1-4)GlcNAc6S
Summary of the method: as §1

Gal4S(b1-4)GlcNAc = target: Gal4S(b1-4)GlcNAc
Summary of the method: as §1

Gal4S6S(b1-4)GlcNAc = target: Gal4S6S(b1-4)GlcNAc
Summary of the method: as §1

Gal6P(b1-4)GlcNAc = target: Gal6P(b1-4)GlcNAc
Summary of the method: as §1

Gal6S(b1-3)GlcNAc = target: Gal6S(b1-3)GlcNAc
Summary of the method: as §1

Gal6S(b1-3)GlcNAc6S = target: Gal6S(b1-3)GlcNAc6S
Summary of the method: as §1

Gal6S(b1-4)Glc = target: Gal6S(b1-4)Glc
Summary of the method: as §1

Gal6S(b1-4)Glc6S = target: Gal6S(b1-4)Glc6S
Summary of the method: as §1

Gal6S(b1-4)GlcNAc = target: Gal6S(b1-4)GlcNAc
Summary of the method: as §1

Gal6S(b1-4)GlcNAc6S = target: Gal6S(b1-4)GlcNAc6S
Summary of the method: as §1

GalNAc(a1-3)Gal = target: GalNAc(a1-3)Gal
Summary of the method: as §1

GalNAc(a1-3)GalNAc = target: GalNAc(a1-3)GalNAc
Summary of the method: as §1

[5] = target: GalNAc(a1-3)GalNAc(b1-3)Gal(a1-4)Gal(b1-4)Glc
Summary of the method: as §1

[6] = target: GalNAc(a1-3)GalNAc(b1-3)Gal(a1-4)Gal(b1-4)GlcNAc
Summary of the method: as §1

GalNAc(b1-3)Gal = target: GalNAc(b1-3)Gal
Summary of the method: as §1

[7] = target: GalNAc(b1-3)Gal(a1-4)Gal(b1-4)GlcNAc
Summary of the method: as §1

[8] = target: GalNAc(b1-3)Gal(a1-4)Gal(b1-4)GlcNAc(b1-3)Gal(b1-4)Glc
Summary of the method: as §1

[9] = target: GalNAc(b1-3)Gal(a1-6)Gal(b1-4)Glc
Summary of the method: as §1

GalNAc(b1-3)GalNAc = target: GalNAc(b1-3)GalNAc
Summary of the method: as §1

GalNAc(b1-3)GlcNAc = target: GalNAc(b1-3)GlcNAc
Summary of the method: as §1

GalNAc(b1-4)Gal(b1-4)Glc = target: GalNAc(b1-4)Gal(b1-4)Glc
Summary of the method: as §1

B1: CvGal2 (Crassostrea virginica) (protein)
chain: MGSSHHHHHHSSGLVPRGSHMRIREAGKRKDTTKVYQIPDGLFPGQQVMLRGRVPWGSKSFSINFSATPRMGEGDILFHLNPRPSEGVCIRNALLNGSWGAEEKWQPYFPFDDGRSFSVKIEVTNDAFRTFVNGRPFVDFLHRTDFRAGKYLTLREGAEYYDVIFQSKPNIPLTTAIHNGMRIGKTIRIRGMCTAQDGFAINFNDNRNNIYFHFNARPAQRTVVRNSYFGSWGNEETAISKEFPFYPFLYFYASFVCMEDKFAVYVNDEHFIDFAHRGNPNNISVLQIKGSVNVLDTECLEPMGEDAMTEVDSGLENGDLFVLNGLMTERGKTFAVNFLNGFTENDDIALHFNPRKSTGEVVLNSRYGGAWQSEEKVALPGVFWSNRPLQVKVETKRNKFKIYVNGVDLAKYKIRGNVEDVHAVQVKGDVFLLETLLLKRLMKPVWERLTGGIRPGTWVTLQGTPKKNWQQFVVNFALDDTLDGDIAFHFNVRRGARQVVRNHRQSGAWGREETVTPFFAFDSEATFEIVFFVKEEKFLIYFNGKLFFEFVHRVPVERITHIYMDGDCNFYEPEVVI
[1]
  glycan array binding signal (z-score): -0.325
Gal3S(b1-4)Glc
  glycan array binding signal (z-score): 0.033
Gal3S(b1-4)Glc6S
  glycan array binding signal (z-score): 0.689
Gal3S(b1-4)GlcNAc
  glycan array binding signal (z-score): -0.322
[2]
  glycan array binding signal (z-score): -0.314
[3]
  glycan array binding signal (z-score): -0.323
[4]
  glycan array binding signal (z-score): -0.282
Gal3S4S(b1-4)GlcNAc
  glycan array binding signal (z-score): -0.332
Gal3S6S(b1-4)GlcNAc
  glycan array binding signal (z-score): -0.322
Gal3S6S(b1-4)GlcNAc6S
  glycan array binding signal (z-score): -0.319
Gal4S(b1-4)GlcNAc
  glycan array binding signal (z-score): -0.335
Gal4S6S(b1-4)GlcNAc
  glycan array binding signal (z-score): -0.323
Gal6P(b1-4)GlcNAc
  glycan array binding signal (z-score): -0.347
Gal6S(b1-3)GlcNAc
  glycan array binding signal (z-score): -0.329
Gal6S(b1-3)GlcNAc6S
  glycan array binding signal (z-score): -0.334
Gal6S(b1-4)Glc
  glycan array binding signal (z-score): -0.331
Gal6S(b1-4)Glc6S
  glycan array binding signal (z-score): -0.333
Gal6S(b1-4)GlcNAc
  glycan array binding signal (z-score): -0.312
Gal6S(b1-4)GlcNAc6S
  glycan array binding signal (z-score): -0.34
GalNAc(a1-3)Gal
  glycan array binding signal (z-score): -0.134
GalNAc(a1-3)GalNAc
  glycan array binding signal (z-score): -0.164
[5]
  glycan array binding signal (z-score): 0.523
[6]
  glycan array binding signal (z-score): 1.83
GalNAc(b1-3)Gal
  glycan array binding signal (z-score): 0.085
[7]
  glycan array binding signal (z-score): -0.28
[8]
  glycan array binding signal (z-score): -0.074
[9]
  glycan array binding signal (z-score): -0.262
GalNAc(b1-3)GalNAc
  glycan array binding signal (z-score): -0.341
GalNAc(b1-3)GlcNAc
  glycan array binding signal (z-score): 0.006
GalNAc(b1-4)Gal(b1-4)Glc
  glycan array binding signal (z-score): -0.331
